Measurements published in patent US20200399238A1, “THERAPEUTIC AURONES” (MIDDLE TENNESSEE STATE UNIVERSITY, priority 2016, published 2020).

System: RAW 264.7 cells
Experiment: Alamar Blue cell viability assay, RAW 264.7
Type: cell-based, murine
Method: THP-1 cells were maintained in RPMI 1640 medium supplemented with 10% heat-inactivated FBS and 1% penicillin/streptomycin (complete culture medium) at 37° C. with 5% CO2 supplemented. Cell concentrations were adjusted to desired concentrations for each experiment by centrifugation at 500×g for 5 min and resuspended in complete culture medium with 100 nM of PMA. Cell concentration was adjusted to 5×10^5 cells/ml for all assays with the exception of 2.5×10^5 cells/ml were used for NF-κB nuclear translocation assay. Cells were seeded onto 96-, 24-, or 12-well plates and incubated for 48 to 72 h to allow for differentiation. Cells were washed with serum-free RPMI 1640 medium before each experiment to remove undifferentiated cells. […] Cells were seeded into tissue culture plates at 10% confluence and grown to 80% confluence within 72 h. For live cell microscopy, 1×10^5 cells/ml were seeded into 35 mm glass-bottom (MatTek) dishes 24 h prior to imaging. […]
Following treatment, the relative cell viability was measured by Alamar Blue assay. […] Cell viability was assessed by measuring relative fluorescent units (RFU) on the SpectraMax M2e microplate reader (Molecular Devices Inc., Sunnyvale, Calif., USA) at Ex 560 nm and Em 590 nm. The results were expressed as a percentage relative to LPS alone control cells. The effects of the vehicle control, DMSO, on cell viability were also assessed.

SMILES: O=C1/C(=C/c2ccc(CO)o2)Oc2ccccc21 [aurone 1]
- RAW 264.7 cell viability (Alamar Blue) (100 μM, at least 24 h): without apparent toxicity
- RAW 264.7 cell viability (Alamar Blue) (up to and including 100 μM with LPS, 4 h post treatment): no effect on viability
